As a reminder, the IC50 is the concentration needed to halve the response being measured.

The test deals with SARS-CoV-2. In words: microbe, parasite or virus in culture. The note with it: Severe acute respiratory syndrome coronavirus 2, Vero, read-out: anti-SARS-CoV-2 infection activity in cell culture, IC50.

As to `O=C(Oc1cncc(Cl)c1)c1sccc1Cl` [WNN2048-F004], the concentration for half-maximal inhibition (IC50) stood at 21.3 µM.

For the origin of these results see PMC9871955, “High-throughput screening of SARS-CoV-2 main and papain-like protease inhibitors” (Protein & Cell, 2022).
